Reference: PubChem BioAssay AID2782 (National Center for Advancing Translational Sciences (NCATS), 2010)
This list was built around the results that the source calls inconclusive (neither active nor inactive); the mix of calls is not that of the screen. A potency beside an inconclusive call is a rough fit, not a confirmed value. “Side channel” marks fits to a control or component signal instead of the main read-out. Active and inactive are the calls of the source. Calls come from the whole dose curve; as a rule, active = well fitted inhibition curve with a large enough effect in the polarisation, with a control signal flat (not every such curve was filed as active); inconclusive = small, poorly fitted or top-dose-only effect, or effect the other way, or a change in a side signal; inactive = no such curve, though single readings can be large or run the other way; the % refers to the polarisation.

Assay: Confirmation of Inhibitors Targeting the Menin-MLL Interaction in MLL Related Leukemias: Competition With Texas Red Labeled MLL-derived Mutant Peptide
Settings: fluorescence polarization, Texas Red MLL peptide displacement; FP change, negative = inhibition: at 94.6 µM (top of the series) unless noted
How it was run: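 Hits from the primary screen were retested: compounds were incubated 1 hr at ambient with 200 nM menin, 50 nM Texas Red mutant peptide and 25 nM fluorescein wild-type peptide (Tris pH 7.5, BSA-supplemented buffer), then fluorescence polarization was read.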
% is set by controls: 0 for no effect and ±100 for the full control effect; potency is the fitted concentration of half-maximal effect; tags give direction and shape of the fitted curve or compound fluorescence and quenching.

| Compound | FP change, negative = inhibition | Potency |
| --- | --- | --- |
| COC(=O)c1cc(CNC(=O)CCCSc2ccccc2)ccc1OC | inactive: 19.6% |  |
| CCOc1cc(CNCCc2ccc(S(N)(=O)=O)cc2)ccc1OCc1ccccc1 |  | active: 70.8 µM |
| O=C(Nc1cc(Br)ccc1O)c1cc(-c2cccs2)on1 |  | inconclusive: 11.2 µM [inhibitor, full curve] |
| O=C(CSc1nnc(-c2c[nH]c3ccccc23)o1)c1ccc(-c2ccccc2)cc1 |  | active: 35.5 µM |
| O=C1Cc2ccccc2Sc2c(OCCN3CCCCC3)cccc21 |  | active: 126 µM |
| Cc1ccc(NS(=O)(=O)c2csc(C(N)=O)c2)cc1C | inactive: 4.48% [at 288 µM] |  |
| Fc1ccccc1C1c2cccn2CCN1C(=S)Nc1ccc(Br)cc1 (stereo unspecified) |  | inconclusive: 31.7 µM [inhibitor, full curve] |
| CCN(CCn1cccn1)Cc1ccccc1OCC(O)CN1CCc2ccccc2C1 (stereo unspecified) |  | inconclusive: 79.4 µM [inhibitor, partial curve] |
| CCC(=O)Nc1ccc(-c2cc(-c3ccccc3)nc(-c3ccc(NC(=O)CC)cc3)n2)cc1 |  | active: 39.8 µM |
| O=C(/C=C/c1ccccc1)Nc1nnc(SCC(=O)c2ccc3ccccc3c2)s1 |  | active: 17.8 µM |
| C[C@@H]1CN(C(=O)c2nc3ccc(Cl)cn3c2CNCC[C@@H]2C[C@@H]3C=C[C@H]2C3)C[C@H](C)O1 |  | inconclusive: 28.3 µM [fluorescent, side channel, partial curve] |
| O=C(CSc1ccc(Cl)cc1)Nc1ccc(NC(=O)c2ccco2)cc1 |  | inconclusive: 63.2 µM [fluorescent, side channel, partial curve] |
| Cc1ccc(NC(=O)CN(C)C(=O)COc2cccc3cccnc23)cc1 |  | inconclusive: 224 µM [quencher, side channel, single point] |
| O=C(Nc1ccc(Oc2ccc3c(c2)C(=O)N(c2ccc(O)cc2)C3=O)cc1)c1cccs1 |  | inconclusive: 79.4 µM [fluorescent, side channel, full curve] |
| CC(=O)NC1C(=O)N(CCN2CCOCC2)c2ccc(Cl)cc21 (stereo unspecified) |  | inconclusive: 251 µM [quencher, side channel, single point] |
| C=C1CCC[C@]2(C)C[C@H]3OC(=O)C(CNCCN(CC)CC)[C@H]3CC12 (stereo partly specified) |  | inconclusive: 63.2 µM [fluorescent, side channel, partial curve] |

| Compound | FP change, negative = inhibition | Potency |
| --- | --- | --- |
| COc1cc(/C=C2/C(=O)N(c3ccc(Br)cc3)N=C2C)cc(OC)c1OC |  | inconclusive: 141 µM [quencher, partial curve, poor fit] |
| O=C(CSc1nc(O)cc(=O)n1-c1ccccc1)c1ccc(Br)cc1 |  | inconclusive: 100 µM [quencher, side channel, partial curve] |
| O=c1[nH]nc(Cc2ccc(-c3ccc(Cl)cc3)o2)c2ccccc12 |  | inconclusive: 63.2 µM [fluorescent, partial curve] |
| CCc1oc2ccccc2c1C(=O)c1cc(Br)c(O)c(Br)c1 |  | inconclusive: 100 µM [quencher, side channel, partial curve] |
| CN1CCS/C1=C/C=C1/SC(=S)N(Cc2ccccc2)C1=O |  | inconclusive: 35.5 µM [quencher, side channel, full curve] |
| COc1ccc2nc(NC(=O)CSc3nnc(N)s3)sc2c1 |  | inconclusive: 35.5 µM [inhibitor, full curve, poor fit] |
| COc1ccc(C2=C(CN(C)C)C(c3ccccc3)c3ccccc3O2)cc1 (stereo unspecified) |  | inconclusive: 22.4 µM [fluorescent, side channel, full curve] |
| CCc1cc2c(N3CCN(c4nnc(CC)s4)CC3)ncnc2s1 |  | active: 11.2 µM |
| CCOC(=O)c1cnc2ccc(OC)cc2c1Nc1ccc(N2CCN(C)CC2)cc1 |  | active: 141 µM |
| CCN(CC)Cc1cc2[nH]c3c4ccc(Cl)cc4ncc3c2cc1OC |  | active: 56.4 µM |
| O=C(CCN1CCN(c2ccc([N+](=O)[O-])cc2)CC1)c1ccc(Cl)cc1 | inactive: -16.1% [at 288 µM] |  |
| O=C1C(=O)c2ncccc2-c2cccnc21 |  | inconclusive: 141 µM [inhibitor, partial curve] |
| CCCC(c1nnnn1Cc1cccs1)N1CCN(C2CCCC2)CC1 (stereo unspecified) |  | active: 112 µM |
| CCOC(=O)c1cnc2ccc(OCC)cc2c1N1CCN(C)CC1 |  | active: 31.7 µM |
| COC1=C(Nc2ccccc2)C(=O)c2ccccc2C1=O |  | inconclusive: 112 µM [inhibitor, partial curve] |
